Experimental data: the supplement of paper PMC10126150
Values marked as one replicate rest on one cluster of the flow cell; about a third of the high ones do not repeat.

system: ATP; test: switch fluorescence ratio, 500 uM ATP over buffer (Cy3 cluster intensity, sum of 5 cycles each) (fold (ratio)); higher = stronger signal-on switching upon ATP binding; sequences stand for … in TCGTCGGCAGCGTCAGATGTGTATAAGAGACAGTTTTTTTTTTTTTTTTTTTTTTTTT…TC; settings: aptamer strand: ATP DNA aptamer (quencher-CACCTGGGGGAGTATTGCGGAGGAAGG + anchor), 100 nM annealed; ATP concentration: 500 uM; one replicate
In short: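 Clusters with intensities outside 100-1000 RFU were excluded. The remaining Cy3-labelled switching-strand clusters on a modified Illumina MiSeq flow-cell had been annealed to 100 nM quencher-labelled ATP aptamer and imaged in selection buffer, then after 15 min with 500 uM ATP at 22 °C, for five cycles separated by NaOH stripping and re-annealing. The fluorescence ratio, averaged per switch-domain sequence, is each cluster's summed target-cycle Cy3 intensity over its summed buffer-cycle Cy3 intensity.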
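Further: ATP exposure 15 min at 22 °C before imaging.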

| Sequence | switch fluorescence ratio |
| --- | --- |
| ACAGACACCA | 1.14 |
| ACAGACAGTG | 0.992 |
| ACAGACATCG | 1.04 |
| ACAGACTAAG | 1.09 |
| ACAGAGCCA | 1.04 |
| ACAGAGTACG | 1.07 |
| ACAGAGTCCA | 1.01 |
| ACAGATCGGC | 0.972 |
| ACAGATCTTT | 0.999 |
| ACAGATGATA | 1.01 |
| ACAGATGCAT | 1.05 |
| ACAGCAATCT | 2.88 |
| ACAGCAGCTA | 1.04 |
| ACAGCATCGA | 1.01 |
| ACAGCCCACG | 1.28 |
| ACAGCGGTTA | 0.995 |
| ACAGCGTATG | 1 |
| ACAGCTGACT | 1.01 |
| ACAGCTTGGG | 0.909 |
| ACAGGAATAG | 1.19 |
| ACAGGATGCT | 0.991 |
| ACAGGGACGT | 1.05 |
| ACAGGGCCTC | 0.946 |
| ACAGGGGTA | 1.06 |
| ACAGGTATGG | 0.99 |
| ACAGGTTAAA | 0.995 |

| Sequence | switch fluorescence ratio |
| --- | --- |
| ACAGGTTGAG | 1.03 |
| ACAGTAAA | 1.04 |
| ACAGTAGTTG | 1.03 |
| ACAGTCACCA | 1.14 |
| ACAGTGGACG | 1.01 |
| ACAGTGGCTT | 1.01 |
| ACAGTGTTCC | 1.05 |
| ACAGTTAACG | 0.972 |
| ACAGTTGCCG | 0.979 |
| ACATAAGTAT | 0.972 |
| ACATAATGTC | 1.08 |
| ACATACCTGC | 1.43 |
| ACATACTCTT | 1.27 |
| ACATAGGATG | 0.985 |
| ACATATCTAA | 1.04 |
| ACATATGCTT | 1 |
| ACATCAGGGC | 1.04 |
| ACATCATTTT | 1 |
| ACATCCAGCG | 1.12 |
| ACATCGAAGA | 1.01 |
| ACATCGCAAA | 2.29 |
| ACATCTAAGA | 0.99 |
| ACATCTAT | 1.04 |
| ACATCTTGTA | 1.08 |
| ACATGAACGA | 1.72 |
| ACATGCATCA | 1.05 |

| Sequence | switch fluorescence ratio |
| --- | --- |
| ACATGGTCAT | 1.01 |
| ACATGTCCAG | 0.992 |
| ACATGTCGA | 0.939 |
| ACATGTGGTA | 1.02 |
| ACATGTGTTA | 1.01 |
| ACATTAATTT | 1 |
| ACATTAGGGC | 1.02 |
| ACATTCAGCA | 1.03 |
| ACATTCCCCG | 1.07 |
| ACATTCGCGG | 1.08 |
| ACATTCGGGT | 1.04 |
| ACATTGGCCC | 0.985 |
| ACATTGGGGG | 1.03 |
| ACATTGGTT | 0.985 |
| ACATTGTTTG | 0.994 |
| ACCAAGTCAA | 1.07 |
| ACCAATCCAG | 1.01 |
| ACCAATCGAA | 1.05 |
| ACCACACCGG | 1.2 |
| ACCACATTGA | 1.03 |
| ACCACCCGCT | 1.2 |
| ACCAGAGCTG | 1.11 |
| ACCAGCACTC | 1.59 |
| ACCAGCCAAG | 1.07 |
| ACCAGGAAAC | 0.988 |
| ACCAGGACTT | 1.03 |

| Sequence | switch fluorescence ratio |
| --- | --- |
| ACCAGGCCGA | 1.02 |
| ACCAGTCCCG | 1.08 |
| ACCATGATAT | 0.98 |
| ACCATGTATA | 0.961 |
| ACCATTGTAA | 1.01 |
| ACCATTTACC | 1.06 |
| ACCCAAGTTT | 1.06 |
| ACCCACCGGG | 1.06 |
| ACCCACCTG | 1.25 |
| ACCCACGTAC | 2 |
| ACCCACTCCC | 1.53 |
| ACCCAGAATT | 0.976 |
| ACCCAGACTG | 1.27 |
| ACCCAGATCT | 1.02 |
| ACCCAGGTGA | 1.17 |
| ACCCAGGTTT | 1.59 |
| ACCCATCCGT | 1.19 |
| ACCCATGTAT | 1.03 |
| ACCCATTCAC | 1.17 |
| ACCCATTGCG | 1.03 |
| ACCCCCGGGT | 1.35 |
| ACCCCCTGTG | 4.91 |
| ACCCCGATTG | 1.16 |
| ACCCCGGGAT | 1.57 |
| ACCCCTTAGC | 1.14 |
| ACCCCTTTGT | 1.07 |

| Sequence | switch fluorescence ratio |
| --- | --- |
| ACCCGATACG | 1.27 |
| ACCCTGAAGT | 1.01 |
| ACCCTGCAAC | 2.89 |
| ACCCTTAGTA | 1.03 |
| ACCCTTATTT | 0.99 |
| ACCCTTGGCC | 0.997 |
| ACCGACCCTT | 1.21 |
| ACCGAGCCGT | 1.02 |
| ACCGATTGGC | 0.987 |
| ACCGCCGTGC | 1.26 |
| ACCGCCTGAC | 3.56 |
| ACCGCGTAAG | 1.01 |
| ACCGCTCAC | 4.33 |
| ACCGCTGGCA | 1.06 |
| ACCGGAAACA | 1.09 |
| ACCGGACGAC | 3.48 |
| ACCGGAGGAT | 0.951 |
| ACCGGCACA | 1.13 |
| ACCGGGGCAT | 1.07 |
| ACCGGGTACG | 1.07 |
| ACCGGGTATG | 1.05 |
| ACCGGTGGCA | 1.04 |
| ACCGTAAAGC | 1.43 |
| ACCGTAGGCA | 1.03 |
| ACCGTCGGGT | 0.981 |
| ACCGTTAACT | 1.11 |

| Sequence | switch fluorescence ratio |
| --- | --- |
| ACCGTTACGC | 1.41 |
| ACCGTTACGT | 1.25 |
| ACCGTTCCTT | 1.04 |
| ACCGTTGAGC | 1.02 |
| ACCGTTGCC | 0.982 |
| ACCTAAAGTG | 1.05 |
| ACCTAGACGC | 1.26 |
| ACCTAGGGAT | 1.04 |
| ACCTATCCAT | 1.01 |
| ACCTATTGT | 1.04 |
| ACCTCATTAC | 2.24 |
| ACCTCCTTGG | 0.968 |
| ACCTCTATTT | 1.1 |
| ACCTGAAATG | 0.997 |
| ACCTGCGTTT | 0.987 |
| ACCTGGGGCT | 1.06 |
| ACCTGGTCTT | 1.01 |
| ACCTGTAAGG | 1.03 |
| ACCTGTAC | 1.47 |
| ACCTGTGCCT | 1.07 |
| ACCTGTGTCA | 1.07 |
| ACCTGTTATT | 1.02 |
| ACCTTCCGAA | 2.87 |
| ACCTTGAGGA | 0.982 |
| ACCTTGATCA | 1.02 |
| ACCTTGGGGG | 0.991 |

| Sequence | switch fluorescence ratio |
| --- | --- |
| ACCTTGGTGC | 1.16 |
| ACCTTGTTAT | 0.963 |
| ACCTTTAGTA | 0.975 |
| ACCTTTGCTT | 1.05 |
| ACCTTTTCCC | 1.24 |
| ACGAAAAAGC | 0.987 |
| ACGAAGGAT | 1 |
| ACGAAGGGAT | 0.996 |
| ACGAATGACA | 1.03 |
| ACGACATCT | 1.12 |
| ACGACCACTT | 1.39 |
| ACGACCATCT | 1.15 |
| ACGACCTCAT | 1.21 |
| ACGACTCGGC | 1.34 |
| ACGACTTGCC | 1.12 |
| ACGAGAATCA | 0.987 |
| ACGAGAGTTC | 1.05 |
| ACGAGCGAAT | 1.56 |
| ACGAGGCAG | 1.67 |
| ACGAGGGGCC | 0.98 |
| ACGAGGTGCG | 0.942 |
| ACGAGTAACC | 1.01 |
| ACGATAGTCG | 1.01 |
| ACGATCATAA | 1.04 |
| ACGATCTAAT | 1.04 |
| ACGATCTTCC | 2.73 |

| Sequence | switch fluorescence ratio |
| --- | --- |
| ACGATGGTT | 0.995 |
| ACGATTCCAG | 1.12 |
| ACGATTGGCG | 1.04 |
| ACGCACCAGG | 2.15 |
| ACGCACTGTG | 1.24 |
| ACGCAGACGC | 2.28 |
| ACGCAGTATC | 1.4 |
| ACGCCAGCCA | 1.11 |
| ACGCCCTCGT | 1.01 |
| ACGCCGATCT | 1.08 |
| ACGCGAGGTA | 0.957 |
| ACGCGCTAGA | 1 |
| ACGCGGACG | 1.01 |
| ACGCGTATCG | 1.05 |
| ACGCGTTGTC | 1.06 |
| ACGCTCTTCT | 1.02 |
| ACGCTGGACT | 1.34 |
| ACGCTTACAG | 1.23 |
| ACGCTTGTGG | 1 |
